According to the supplement of paper PMC4604168 (melanoma cell lines):
The list shows a part of the results. Many values rest on one well or one pass, so single values are uncertain.
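Further: cells treated in 1,536-well plates, then fixed and DAPI-stained, with nuclei counted from automated high-throughput microscope images.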

What follows are molecules tested on A101D (assay: cell count relative to DMSO control; melanoma cells; higher = more viable cells). Settings: library dose: standard library concentration; 72 h.
With `COc1cc([C@@H]2c3cc4c(cc3[C@@H](O[C@@H]3O[C@@H]5CO[C@@H](C)O[C@H]5[C@H](O)[C@H]3O)[C@H]3COC(=O)[C@H]23)OCO4)cc(OC)c1O` [etoposide] + Nc1cccc2c1CN(C1CCC(=O)NC1=O)C2=O [lenalidomide] (first compound 0.1 µM, partner dose 5 µM) the cell count was 81.1%. Work on `Cn1cnc2c(F)c(Nc3ccc(Br)cc3Cl)c(C(=O)NOCCO)cc21` [selumetinib] + NCC(=O)Nc1ccc(-n2nc(C(F)(F)F)cc2-c2ccc3c(ccc4ccccc43)c2)cc1 [OSU03012] (first compound 0.075 µM, partner dose 5 µM) yielded a cell count of 95.8%. `Cn1cnc2c(F)c(Nc3ccc(Br)cc3Cl)c(C(=O)NOCCO)cc21` [selumetinib] + Cc1nc(Nc2ncc(C(=O)Nc3c(C)cccc3Cl)s2)cc(N2CCN(CCO)CC2)n1 [dasatanib] (first compound 0.075 µM, partner dose 0.02 µM) was tested, and the cell count was 68.6%. `Cn1cnc2c(F)c(Nc3ccc(Br)cc3Cl)c(C(=O)NOCCO)cc21` [selumetinib] + Cn1c(=O)n(-c2ccc(C(C)(C)C#N)cc2)c2c3cc(-c4cnc5ccccc5c4)ccc3ncc21 [NVP-BEZ235] (first compound 0.075 µM, partner dose 0.02 µM) gave a cell count of 60.7%. Molecule `Cn1cnc2c(F)c(Nc3ccc(Br)cc3Cl)c(C(=O)NOCCO)cc21` [selumetinib] + C=C(c1ccc(C(=O)O)cc1)c1cc2c(cc1C)C(C)(C)CCC2(C)C [Bexarotene] (first compound 0.075 µM, partner dose 10 µM) has a cell count of 90.4%. In the case of `C[C@]1(O)C[C@@H](c2nc(-c3ccc4ccc(-c5ccccc5)nc4c3)c3c(N)nccn32)C1` + Nc1nc(F)nc2c1ncn2[C@@H]1O[C@H](CO)[C@@H](O)[C@@H]1O [fludarabine] (first compound 2 µM, partner dose 1 µM), the cell count is reported as 89%. Work on `Cn1cnc2c(F)c(Nc3ccc(Br)cc3Cl)c(C(=O)NOCCO)cc21` [selumetinib] + Cn1sc(=O)n(Cc2ccccc2)c1=O [TDZD-8] (first compound 0.075 µM, partner dose 2 µM) yielded a cell count of 75.8%. Molecule `C[C@]1(O)C[C@@H](c2nc(-c3ccc4ccc(-c5ccccc5)nc4c3)c3c(N)nccn32)C1` + OCc1c[nH]c2ccccc12 [Indole-3-carbinol] (first compound 2 µM, partner dose 4 µM) has a cell count of 94.1%. In the case of `Cn1cnc2c(F)c(Nc3ccc(Br)cc3Cl)c(C(=O)NOCCO)cc21` [selumetinib] + C=CCNC1=C2C[C@@H](C)C[C@H](OC)[C@H](O)[C@@H](C)/C=C(\C)[C@H](OC(N)=O)[C@@H](OC)/C=C\C=C(/C)C(=O)NC(=CC1=O)C2=O [Tanespimycin] (first compound 0.075 µM, partner dose 0.01 µM), the cell count is reported as 58%. In the case of `CCN(CC)CCNC(=O)c1c(C)[nH]c(/C=C2\C(=O)Nc3ccc(F)cc32)c1C` [sunitinib] + O=C(O)C(=O)Nc1sc2c(c1C(=O)O)CCNC2 [TCS401] (first compound 2 µM, partner dose 8.33333 µM), the cell count is reported as 48.1%. `Cn1cnc2c(F)c(Nc3ccc(Br)cc3Cl)c(C(=O)NOCCO)cc21` [selumetinib] + Cn1c(Nc2ccc(C(F)(F)F)cc2)nc2cc(Oc3ccnc(-c4ncc(C(F)(F)F)[nH]4)c3)ccc21 [CHIR265] (first compound 0.075 µM, partner dose 0.4 µM) showed a cell count of 49.9%. `COc1cc([C@@H]2c3cc4c(cc3[C@@H](O[C@@H]3O[C@@H]5CO[C@@H](C)O[C@H]5[C@H](O)[C@H]3O)[C@H]3COC(=O)[C@H]23)OCO4)cc(OC)c1O` [etoposide] + Nc1nc(F)nc2c1ncn2[C@@H]1O[C@H](CO)[C@@H](O)[C@@H]1O [fludarabine] (first compound 0.1 µM, partner dose 1 µM) showed a cell count of 88.5%. `Cn1cnc2c(F)c(Nc3ccc(Br)cc3Cl)c(C(=O)NOCCO)cc21` [selumetinib] + Nc1ncn([C@H]2C[C@H](O)[C@@H](CO)O2)c(=O)n1 [decitabine] (first compound 0.075 µM, partner dose 0.5 µM) was tested, and the cell count was 73.4%. `Cn1cnc2c(F)c(Nc3ccc(Br)cc3Cl)c(C(=O)NOCCO)cc21` [selumetinib] + CC(=O)c1c(C)c2cnc(Nc3ccc(N4CCNCC4)cn3)nc2n(C2CCCC2)c1=O [palbociclib] (first compound 0.075 µM, partner dose 0.2 µM) showed a cell count of 64.6%.
